Reference: publication PMC4336329 (PLoS ONE, 2015)
In all, about 310,000 compounds went through this assay and about 14,000 (4.5%) showed an effect of 50% or more. Effects have a minus sign here. The list shows a part of the results.

Biological target: human ether-à-go-go-related gene (hERG) potassium channel (human, UniProt Q12809)
Experiment: primary screen, population patch clamp on CHO cells stably expressing hERG
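Further: peak tail current of the secondary pulse compared with the same well before compound.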

Chain of human ether-à-go-go-related gene (hERG) potassium channel (Q12809 whole entry, looked up): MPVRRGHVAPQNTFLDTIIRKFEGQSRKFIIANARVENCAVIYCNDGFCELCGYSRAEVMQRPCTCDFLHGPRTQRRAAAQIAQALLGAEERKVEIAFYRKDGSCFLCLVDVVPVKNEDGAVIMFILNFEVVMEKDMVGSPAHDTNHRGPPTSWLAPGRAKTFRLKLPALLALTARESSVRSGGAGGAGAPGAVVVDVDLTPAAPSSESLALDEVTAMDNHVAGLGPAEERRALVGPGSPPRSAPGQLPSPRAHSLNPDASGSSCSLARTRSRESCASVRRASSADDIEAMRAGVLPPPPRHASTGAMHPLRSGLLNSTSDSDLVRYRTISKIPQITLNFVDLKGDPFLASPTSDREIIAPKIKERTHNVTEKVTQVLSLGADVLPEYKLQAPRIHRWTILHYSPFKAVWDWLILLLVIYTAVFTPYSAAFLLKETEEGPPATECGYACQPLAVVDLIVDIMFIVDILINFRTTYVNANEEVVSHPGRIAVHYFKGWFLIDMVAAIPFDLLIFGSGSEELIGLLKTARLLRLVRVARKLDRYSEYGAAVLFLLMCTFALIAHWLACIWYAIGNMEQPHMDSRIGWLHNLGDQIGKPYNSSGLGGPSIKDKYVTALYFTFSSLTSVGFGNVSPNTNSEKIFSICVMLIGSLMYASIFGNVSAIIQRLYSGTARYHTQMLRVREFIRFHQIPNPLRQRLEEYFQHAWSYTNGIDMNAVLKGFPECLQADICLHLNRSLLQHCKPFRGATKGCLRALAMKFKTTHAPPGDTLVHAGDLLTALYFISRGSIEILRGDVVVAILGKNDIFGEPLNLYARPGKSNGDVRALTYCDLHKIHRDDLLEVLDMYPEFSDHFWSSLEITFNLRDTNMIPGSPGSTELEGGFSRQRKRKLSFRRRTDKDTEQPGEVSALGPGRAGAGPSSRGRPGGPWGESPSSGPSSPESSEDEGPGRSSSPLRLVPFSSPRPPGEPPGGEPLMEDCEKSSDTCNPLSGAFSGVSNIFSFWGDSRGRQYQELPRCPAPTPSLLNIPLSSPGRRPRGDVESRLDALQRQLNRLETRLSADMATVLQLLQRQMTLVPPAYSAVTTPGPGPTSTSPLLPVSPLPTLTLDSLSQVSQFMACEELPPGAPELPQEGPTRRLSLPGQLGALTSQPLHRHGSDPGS

SMILES | hERG current change (%, negative = inhibition) at 10uM [%]
CCOC(=O)c1cnc2ccc(C)cc2c1OCc1cc(F)cc(F)c1 | -18
C#CC1(NC(=O)N(C)C)CCCCC1 | 11.5
Cc1cc(C)cc(N2C(=O)CC(Sc3ccccc3C(=O)O)C2=O)c1 (stereo not shown) | 9.18
CCOCCNC(=O)c1ccc2c3c(cccc13)CC2 | 3.39
Cc1cc2ncn(-c3ncnc4sc5c(c34)CCC(C)C5)c2cc1C (stereo not shown) | -20.4
O=C(NC1CCCCCC1)C(=O)NC1CC1 | 16.2
O=C(C[n+]1cc(-c2ccc(F)cc2)n2c1CCC2)Nc1nc(-c2ccccc2)cs1.[Cl-] | -11.1
O=C(O)c1ccccc1C(=O)N1N=C2/C(=C/c3cccc([N+](=O)[O-])c3)CCCC2C1c1cccc([N+](=O)[O-])c1 (stereo not shown) | 10.7
CN(C)c1oc(-c2ccccc2Cl)nc1S(=O)(=O)c1ccccc1 | -18.3
Cc1ccc(NC(=O)C2CCN(S(=O)(=O)c3cccs3)CC2)c(O)c1 | -4.34
CC(NC(=O)c1ccc2c(c1)S(=O)(=O)N=C1CCCCCN12)c1ccc(S(N)(=O)=O)cc1 (stereo not shown) | 17.2
C=CCC1c2cccc(C(=O)O)c2C(=O)N1c1ccc(F)cc1 (stereo not shown) | -4.59
CCOC(=O)C1CCN(S(=O)(=O)c2ccc(OC)c(C(=O)N3CCCCCC3)c2)CC1 | -12.5
COc1cc(CN2CCCC(C(=O)Nc3ccccc3Oc3cccnc3)C2)ccc1F (stereo not shown) | -39
NNC(=O)C(Cc1ccccc1)NC(=O)OCc1ccccc1 (stereo not shown) | 21
COc1cccc(C(O)c2nc3ccccc3n2C)c1 (stereo not shown) | 3.27
NC(=O)c1cc([N+](=O)[O-])cc2c1C=Cc1ccccc1O2 | 2.92
Cc1ccc(NC2=NC(c3ccccc3)n3c(nc(C)cc3=O)N2)cc1 (stereo not shown) | 0.493
COc1ccc(Cl)cc1NC(=O)CN(C)C(=O)CCc1nc2ccccc2c(=O)[nH]1 | -34.6
C=CCn1c(SCC(=O)Nc2cccc(S(=O)(=O)N(C)c3ccccc3)c2)nnc1C1CC1 | -69.8
Cc1oc2ccc(OC(=O)N3CCOCC3)cc2c1C(=O)OC(C)C | -6.3
O=S(=O)(NNc1ccc(Cl)nn1)c1ccc(F)cc1 | -4

SMILES | hERG current change (%, negative = inhibition) at 10uM [%]
CCC1=Nc2cc(C(=O)NCCN3CCCC3)ccc2Sc2ccccc21 | -52.1
Nc1ccc(C2(c3ccc(N)cc3)c3ccccc3-c3ccccc32)cc1 | 6.06
CCOC(=O)c1c(-c2ccc(C)s2)csc1NC(=O)c1cccs1 | -5.14
Fc1ccc2c(c1)C1C=CCC1C(c1cc3c(cc1Br)OCO3)N2 (stereo not shown) | 4.83
O=C(Nc1ccc2ncccc2c1)c1cc(Cl)ccc1Cl | 12.6
CCOc1cc(C)c(S(=O)(=O)NC2CCCCC2)cc1C | 1.83
O=C(O)c1ccc(N/N=C/c2ccc(-c3cc(Cl)ccc3Cl)o2)cc1 | 8.2
O=C(NCc1nc2ccccc2[nH]1)c1ccc(S(=O)(=O)N2CCCC2)cc1 | 1.92
O=C(COC(=O)c1cccc(S(=O)(=O)N2CCCC2)c1)NCc1ccccc1 | -10.4
CSc1ccccc1NC(=O)c1cccc(S(=O)(=O)N2CCN(C)CC2)c1 | 4.73
CC(C)c1c(O)nc(SCCOc2ccc(Cl)cc2)[nH]c1=O | -1.69
O=C(OCc1c(F)cccc1Cl)c1cnc2ccccc2n1 | 17.6
Cc1cccc(NC(=S)N/N=C/c2cccc([N+](=O)[O-])c2)c1 | -0.54
Cc1ccsc1/C=C1\CCc2ccccc2C1=O | 17.2
CCS(=O)(=O)N1CCC(C(=O)N2CCc3ccccc3C2)CC1 | -0.753
O=C1CC(N2CCOCC2)C(=O)N1c1ccc2c(c1)OCO2 (stereo not shown) | -6.05
CC1C(c2ccccc2)N(C)C(c2ccccc2)CC1(O)c1ccccc1 (stereo not shown) | -2.31
O=C(Nc1ccccc1C(F)(F)F)C1CCN(C(=O)Cc2ccccc2)CC1 | 18.3
Cc1cc(C)n(-c2ccc(NN=C(C#N)C#N)cc2)n1 | -38.7
COc1cc(C(CC(=O)Nc2cccc(C)n2)N2Cc3ccccc3C2=O)cc(OC)c1OC (stereo not shown) | 15.2
Cc1nn(-c2ccccc2)c(Cl)c1/C=N/N1CCN(c2ccccn2)CC1 | 30.5
